# Data as given in the supplement of paper PMC10037445.
# Over roughly 2,900 compounds, “NF-kB SEAP reporter activity, fold change vs agonist alone” has its median near 0.99; the highest 2% begin near 2.6. This is one part of the list.
# Experiments:
# RAW-Dual [1] = test: NF-kB SEAP reporter activity, fold change vs agonist alone; cytotoxicity flag (confluency mask): not cytotoxic; higher = enhanced NF-kB activity
# How it was run: (§1)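 Supernatant from RAW-Dual macrophages was read after 20 hours for IRF by QuantiLuc luminescence and for NF-κB by QuantiBlue absorbance at 620 nm. The cells (50,000 cells/well in DMEM, 384-well plates, 37 °C, 5% CO2) had received 50 nL of library stock by pin tool and, 1 h later, a PRR agonist. Reporter activity is expressed relative to agonist-alone wells as fold change, and wells were flagged cytotoxic if IncuCyte confluency was under 70% of agonist controls in both mask sets.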
# RAW-Dual [2] = test: NF-kB SEAP reporter activity, fold change vs agonist alone; higher = enhanced NF-kB activity
# How it was run: as §1
# RAW-Dual [3] = test: NF-kB SEAP reporter activity, fold change vs agonist alone; cytotoxicity flag (confluency mask): cytotoxic (confluency <70% of control); higher = enhanced NF-kB activity
# How it was run: as §1
# [4] = agonist: ODN 1826 (TLR9) 0.5 ug/mL
# [5] = agonist: Pam2CSK4 (TLR2/6) 0.1 ug/mL
# [6] = agonist: Pam3CSK4 (TLR2/1) 0.1 ug/mL
# [7] = library stock concentration (final ~1000-fold dilution): 10 mM, cytotoxicity flag (confluency mask): not cytotoxic, agonist: Imiquimod (TLR7) […]
# [8] = library stock concentration (final ~1000-fold dilution): 10 mM, cytotoxicity flag (confluency mask): not cytotoxic, agonist: MPLA (TLR4) […]
# [9] = library stock concentration (final ~1000-fold dilution): 10 mM, cytotoxicity flag (confluency mask): cytotoxic (confluency <70% of control), agonist: Imiquimod (TLR7) […]
# [10] = library stock concentration (final ~1000-fold dilution): 10 mM, cytotoxicity flag (confluency mask): cytotoxic (confluency <70% of control), agonist: MPLA (TLR4) […]
compound,measurement,setting,value
CN1CCC(=C2c3ccccc3CCn3c(C=O)cnc32)CC1 (library stock concentration (final ~1000-fold dilution): 10 mM),NF-kB SEAP reporter activity,RAW-Dual [1]; agonist: LPS (TLR4) 0.1 ug/mL,0.853
same,NF-kB SEAP reporter activity,RAW-Dual [1]; [4],0.78
same,NF-kB SEAP reporter activity,RAW-Dual [1]; [5],0.84
same,NF-kB SEAP reporter activity,RAW-Dual [1]; [6],0.965
Cc1cc(F)c(C(=O)Nc2cccc(-c3nncn3C(C)C)n2)cc1-n1cnc(C2CC2)c1 (library stock concentration (final ~1000-fold dilution): 10 mM),NF-kB SEAP reporter activity,RAW-Dual [1]; agonist: LPS (TLR4) 0.1 ug/mL,0.948
same,NF-kB SEAP reporter activity,RAW-Dual [1]; [4],0.467
same,NF-kB SEAP reporter activity,RAW-Dual [1]; [5],0.432
same,NF-kB SEAP reporter activity,RAW-Dual [1]; [6],0.56
Cc1cc(F)c(C(=O)Nc2cccc(-c3nncn3C(C)C)n2)cc1-n1cnc(C2CC2)c1,NF-kB SEAP reporter activity,RAW-Dual [2]; [7],0.705
same,NF-kB SEAP reporter activity,RAW-Dual [2]; [8],0.821
O=C(Nc1ccc(CN2CCOCC2)cc1)c1ccc(-c2cccc(Cl)c2)o1,NF-kB SEAP reporter activity,RAW-Dual [2]; [7],1.04
same,NF-kB SEAP reporter activity,RAW-Dual [2]; [8],1.09
O=C(Nc1ccc(CN2CCOCC2)cc1)c1ccc(-c2cccc(Cl)c2)o1 (library stock concentration (final ~1000-fold dilution): 10 mM),NF-kB SEAP reporter activity,RAW-Dual [1]; agonist: LPS (TLR4) 0.1 ug/mL,1.84
same,NF-kB SEAP reporter activity,RAW-Dual [1]; [4],1.14
same,NF-kB SEAP reporter activity,RAW-Dual [1]; [5],0.967
same,NF-kB SEAP reporter activity,RAW-Dual [1]; [6],1.21
CC(C)Oc1ccc(C(=O)NC(CNC(=O)CN(C)C)Cc2ccc(-c3cn4cccc(C(C)O)c4n3)cc2)cc1Cl (centres undefined) (library stock concentration (final ~1000-fold dilution): 10 mM),NF-kB SEAP reporter activity,RAW-Dual [1]; agonist: LPS (TLR4) 0.1 ug/mL,0.934
same,NF-kB SEAP reporter activity,RAW-Dual [1]; [4],0.199
same,NF-kB SEAP reporter activity,RAW-Dual [1]; [5],1.02
same,NF-kB SEAP reporter activity,RAW-Dual [1]; [6],1.03
CC(C)Oc1ccc(C(=O)NC(CNC(=O)CN(C)C)Cc2ccc(-c3cn4cccc(C(C)O)c4n3)cc2)cc1Cl (centres undefined),NF-kB SEAP reporter activity,RAW-Dual [2]; [7],1.37
same,NF-kB SEAP reporter activity,RAW-Dual [2]; [8],1.39
N=C(CCl)NCCCC(NC(=O)c1ccccc1)C(N)=O.O=C(O)C(F)(F)F (centres undefined) (library stock concentration (final ~1000-fold dilution): 10 mM),NF-kB SEAP reporter activity,RAW-Dual [1]; agonist: LPS (TLR4) 0.1 ug/mL,1.4
same,NF-kB SEAP reporter activity,RAW-Dual [1]; [4],0.884
same,NF-kB SEAP reporter activity,RAW-Dual [1]; [5],0.846
same,NF-kB SEAP reporter activity,RAW-Dual [1]; [6],0.987
N=C(CCl)NCCCC(NC(=O)c1ccccc1)C(N)=O.O=C(O)C(F)(F)F (centres undefined),NF-kB SEAP reporter activity,RAW-Dual [2]; [7],0.949
same,NF-kB SEAP reporter activity,RAW-Dual [2]; [8],0.915
CN1C(=N)NC(C)(c2cc(NC(=O)c3ccc(F)cn3)ccc2F)CS1(=O)=O (centres undefined),NF-kB SEAP reporter activity,RAW-Dual [2]; [7],0.847
same,NF-kB SEAP reporter activity,RAW-Dual [2]; [8],0.931
CN1C(=N)NC(C)(c2cc(NC(=O)c3ccc(F)cn3)ccc2F)CS1(=O)=O (centres undefined) (library stock concentration (final ~1000-fold dilution): 10 mM),NF-kB SEAP reporter activity,RAW-Dual [1]; agonist: LPS (TLR4) 0.1 ug/mL,0.906
same,NF-kB SEAP reporter activity,RAW-Dual [1]; [4],0.673
same,NF-kB SEAP reporter activity,RAW-Dual [1]; [5],0.747
same,NF-kB SEAP reporter activity,RAW-Dual [1]; [6],0.657
CC(C)(O)CC(=O)NCCn1ccc2ncnc(Nc3ccc(Oc4cccc(C(F)(F)F)c4)c(Cl)c3)c21 (library stock concentration (final ~1000-fold dilution): 10 mM),NF-kB SEAP reporter activity,RAW-Dual [3]; agonist: LPS (TLR4) 0.1 ug/mL,0.235
same,NF-kB SEAP reporter activity,RAW-Dual [3]; [4],0.198
same,NF-kB SEAP reporter activity,RAW-Dual [3]; [5],0.0882
same,NF-kB SEAP reporter activity,RAW-Dual [3]; [6],0.151
CC(C)(O)CC(=O)NCCn1ccc2ncnc(Nc3ccc(Oc4cccc(C(F)(F)F)c4)c(Cl)c3)c21,NF-kB SEAP reporter activity,RAW-Dual [2]; [9],0.295
same,NF-kB SEAP reporter activity,RAW-Dual [2]; [10],0.201
CCC1(C)CC(=O)NC1=O (centres undefined) (library stock concentration (final ~1000-fold dilution): 10 mM),NF-kB SEAP reporter activity,RAW-Dual [1]; agonist: LPS (TLR4) 0.1 ug/mL,1.25
same,NF-kB SEAP reporter activity,RAW-Dual [1]; [4],0.986
same,NF-kB SEAP reporter activity,RAW-Dual [1]; [5],1.31
same,NF-kB SEAP reporter activity,RAW-Dual [1]; [6],1.08
CCC1(C)CC(=O)NC1=O (centres undefined),NF-kB SEAP reporter activity,RAW-Dual [2]; [8],0.978
Cc1c(C(=O)N2CCOc3ccc(-c4ccc(N)nc4)cc3C2)ccc(S(C)(=O)=O)c1F,NF-kB SEAP reporter activity,"RAW-Dual [2]; library stock concentration (final ~1000-fold dilution): 2 mM, cytotoxicity flag (confluency mask): not cytotoxic, agonist: Imiquimod (TLR7) […]",0.846
same,NF-kB SEAP reporter activity,"RAW-Dual [2]; library stock concentration (final ~1000-fold dilution): 2 mM, cytotoxicity flag (confluency mask): not cytotoxic, agonist: MPLA (TLR4) […]",1.04
Cc1c(C(=O)N2CCOc3ccc(-c4ccc(N)nc4)cc3C2)ccc(S(C)(=O)=O)c1F (library stock concentration (final ~1000-fold dilution): 2 mM),NF-kB SEAP reporter activity,RAW-Dual [1]; agonist: LPS (TLR4) 0.1 ug/mL,1.07
same,NF-kB SEAP reporter activity,RAW-Dual [1]; [4],1.03
same,NF-kB SEAP reporter activity,RAW-Dual [1]; [5],1.05
same,NF-kB SEAP reporter activity,RAW-Dual [1]; [6],0.957
Cc1cc(C=Cc2ccc3cc(N(C)C)ccc3[n+]2C)c(C)n1-c1ccccc1 (library stock concentration (final ~1000-fold dilution): 10 mM),NF-kB SEAP reporter activity,RAW-Dual [3]; agonist: LPS (TLR4) 0.1 ug/mL,0.207
same,NF-kB SEAP reporter activity,RAW-Dual [3]; [4],1.8
same,NF-kB SEAP reporter activity,RAW-Dual [3]; [5],0.0623
same,NF-kB SEAP reporter activity,RAW-Dual [3]; [6],0.134
Cc1cc(C=Cc2ccc3cc(N(C)C)ccc3[n+]2C)c(C)n1-c1ccccc1,NF-kB SEAP reporter activity,RAW-Dual [2]; [9],2.11
same,NF-kB SEAP reporter activity,RAW-Dual [2]; [10],0.785
Cn1ncc(Cl)c1-c1cc(C(=O)NC(CN)Cc2ccc(F)c(F)c2)oc1Cl (centres undefined) (library stock concentration (final ~1000-fold dilution): 10 mM),NF-kB SEAP reporter activity,RAW-Dual [1]; agonist: LPS (TLR4) 0.1 ug/mL,1.03
same,NF-kB SEAP reporter activity,RAW-Dual [1]; [4],2.35
same,NF-kB SEAP reporter activity,RAW-Dual [1]; [5],1.07
same,NF-kB SEAP reporter activity,RAW-Dual [1]; [6],1.44
Cn1ncc(Cl)c1-c1cc(C(=O)NC(CN)Cc2ccc(F)c(F)c2)oc1Cl (centres undefined),NF-kB SEAP reporter activity,RAW-Dual [2]; [7],1.61
same,NF-kB SEAP reporter activity,RAW-Dual [2]; [8],1.61
CCC(C)C(NC(=O)C(CCCCN)NC(=O)C(CCC(=O)O)NN)C(=O)NC(CCC(N)=O)C(=O)NC(C)C(=O)NC(CCCCN)C(=O)N1CCCC1C(=O)NC(C)C(=O)C(=O)C(CC(C)C)NC(=O)C(CCC(N)=O)NC(=O)C(NC(=O)C(NC(=O)C(CCCNC(=N)N)NC(=O)C(Cc1ccccc1)NC(=O)C(CCCCNNC(Cc1ccccc1)C(=O)NC(CO)C(=O)NC(CCC(=O)O)C(=O)NC(CO)C(=O)NC(C(=O)NC(CC(N)=O)C(=O)NC(C=O)CO)C(C)O)NC(=O)C(Cc1ccccc1)NC(=O)C(CO)NC(=O)C(CCC(=O)O)NC(=O)C(CO)NC(=O)C(NC(=O)C(CC(N)=O)NC(=O)C(N)CO)C(C)O)C(C)C)C(C)O (centres undefined),NF-kB SEAP reporter activity,"RAW-Dual [2]; library stock concentration (final ~1000-fold dilution): 10 mM water, cytotoxicity flag (confluency mask): not cytotoxic, agonist: Imiquimod (TLR7) […]",0.927
same,NF-kB SEAP reporter activity,"RAW-Dual [2]; library stock concentration (final ~1000-fold dilution): 10 mM water, cytotoxicity flag (confluency mask): not cytotoxic, agonist: MPLA (TLR4) […]",1.03
CCC(C)C(NC(=O)C(CCCCN)NC(=O)C(CCC(=O)O)NN)C(=O)NC(CCC(N)=O)C(=O)NC(C)C(=O)NC(CCCCN)C(=O)N1CCCC1C(=O)NC(C)C(=O)C(=O)C(CC(C)C)NC(=O)C(CCC(N)=O)NC(=O)C(NC(=O)C(NC(=O)C(CCCNC(=N)N)NC(=O)C(Cc1ccccc1)NC(=O)C(CCCCNNC(Cc1ccccc1)C(=O)NC(CO)C(=O)NC(CCC(=O)O)C(=O)NC(CO)C(=O)NC(C(=O)NC(CC(N)=O)C(=O)NC(C=O)CO)C(C)O)NC(=O)C(Cc1ccccc1)NC(=O)C(CO)NC(=O)C(CCC(=O)O)NC(=O)C(CO)NC(=O)C(NC(=O)C(CC(N)=O)NC(=O)C(N)CO)C(C)O)C(C)C)C(C)O (centres undefined) (library stock concentration (final ~1000-fold dilution): 10 mM water),NF-kB SEAP reporter activity,RAW-Dual [1]; agonist: LPS (TLR4) 0.1 ug/mL,1.1
same,NF-kB SEAP reporter activity,RAW-Dual [1]; [4],1.16
same,NF-kB SEAP reporter activity,RAW-Dual [1]; [5],1.13
same,NF-kB SEAP reporter activity,RAW-Dual [1]; [6],1.74
